In PMC4336329 (PLoS ONE, 2015):
The campaign covered roughly 310,000 compounds. About 14,000 (4.5%) showed an effect of 50% or more. The effect is printed as a negative number. This is one part of the list.

target: human ether-à-go-go-related gene (hERG) potassium channel (human, UniProt Q12809); test: primary screen, population patch clamp on CHO cells stably expressing hERG
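Also: peak tail current of the secondary pulse compared with the same well before compound.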

human ether-à-go-go-related gene (hERG) potassium channel, sequence (Q12809 whole entry, looked up): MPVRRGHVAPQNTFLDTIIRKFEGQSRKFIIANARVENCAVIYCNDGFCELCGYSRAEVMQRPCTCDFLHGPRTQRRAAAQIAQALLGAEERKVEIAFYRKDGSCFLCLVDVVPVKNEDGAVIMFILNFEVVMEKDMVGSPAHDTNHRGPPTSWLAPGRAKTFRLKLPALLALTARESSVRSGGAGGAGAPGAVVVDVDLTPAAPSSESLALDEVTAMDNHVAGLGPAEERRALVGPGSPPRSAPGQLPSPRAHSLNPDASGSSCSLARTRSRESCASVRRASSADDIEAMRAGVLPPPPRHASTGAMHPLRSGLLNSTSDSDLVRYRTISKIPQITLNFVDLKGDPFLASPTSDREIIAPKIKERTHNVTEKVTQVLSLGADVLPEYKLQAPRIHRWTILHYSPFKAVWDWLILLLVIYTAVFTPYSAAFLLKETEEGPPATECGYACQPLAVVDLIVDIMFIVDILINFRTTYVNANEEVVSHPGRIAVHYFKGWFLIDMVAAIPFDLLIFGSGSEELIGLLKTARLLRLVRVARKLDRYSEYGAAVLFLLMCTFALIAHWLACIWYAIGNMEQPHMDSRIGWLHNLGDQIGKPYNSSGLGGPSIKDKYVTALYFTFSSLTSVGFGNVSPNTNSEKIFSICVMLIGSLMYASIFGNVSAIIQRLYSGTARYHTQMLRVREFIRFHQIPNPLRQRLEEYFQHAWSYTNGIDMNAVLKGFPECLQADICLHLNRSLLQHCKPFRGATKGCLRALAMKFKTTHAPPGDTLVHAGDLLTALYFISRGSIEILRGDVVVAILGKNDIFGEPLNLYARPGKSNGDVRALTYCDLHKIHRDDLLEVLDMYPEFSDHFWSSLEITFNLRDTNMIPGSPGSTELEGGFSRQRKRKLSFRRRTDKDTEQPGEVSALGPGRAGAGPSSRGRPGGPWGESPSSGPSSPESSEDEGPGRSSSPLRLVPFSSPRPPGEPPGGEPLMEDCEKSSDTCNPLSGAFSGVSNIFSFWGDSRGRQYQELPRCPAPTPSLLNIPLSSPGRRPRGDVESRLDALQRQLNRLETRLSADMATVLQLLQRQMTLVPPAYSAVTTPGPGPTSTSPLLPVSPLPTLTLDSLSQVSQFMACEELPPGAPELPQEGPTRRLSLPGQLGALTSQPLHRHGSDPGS

SMILES	hERG current change (%, negative = inhibition) at 10uM [%]
O=C1c2ccccc2C(=O)N1Cc1cc(-c2ccccc2)no1	4.92
O=C(Nc1ccc2c(c1)Cc1ccccc1-2)c1ccco1	-2.2
Cl.OC(CNC1CCCC1)COc1ccc(-c2ccccc2)cc1 (stereo not shown)	-51.8
Cc1ccc2nc(C)cc(N/N=C/c3ccccc3O)c2c1	2.38
Cc1ccc(SCCCn2cnc3ccccc3c2=O)cc1	-49.8
Cc1ccc(OCCNC(=O)c2ccc(C)o2)cc1	-9.65
CCOC(=O)N1CCN(C(=O)c2cccc(N3C(=O)NC4CC3(C)Oc3ccccc34)c2)CC1 (stereo not shown)	6.28
Cc1cc(C)cc(OCC(=O)OCC(=O)c2ccc3c(c2)NC(=O)CO3)c1	17.4
CC(=O)OCC[C@H](NS(=O)(=O)OCC(Cl)(Cl)Cl)c1ccccc1	1.61
COc1ccc(OCCNC(=O)c2cccc(Oc3ccc(C(F)(F)F)cc3[N+](=O)[O-])c2)cc1	10.7
O=C(CNCc1cccs1)Nc1ccc(N2CCCCCC2)cc1.O=C(O)C(=O)O	-24.6
CCc1cc2c(=O)[nH]c(N3CCCC3)nc2s1	4.77
CCCN(CC(=O)Nc1ccccc1OC)C(=O)c1cc(-c2cccs2)nn1-c1ccccc1	-9.02
COc1ccc2c(c1)c(=O)oc1cc(OCC(=O)N3CCC(C)CC3)ccc12	0.938
CCN1CCN(c2ccc(S(=O)(=O)N3CCCCC3)cc2NC(=O)c2ccccc2)CC1	-46
CC1Cc2cc(/C=C3/SC(=S)NC3=O)ccc2O1 (stereo not shown)	-3.36
COC(=O)C1=C(c2cc3ccccc3s2)C[C@@H]2CC[C@H]1N2C(=O)N1CCCC1	-19.7
CC(C)C1OC2c3cccc4cccc(c34)C2N1c1ccccc1 (stereo not shown)	19.3
Cc1cc(OCC(=O)NCCO)cc(C)c1Cl	5.16
CCOC(=O)c1cccc(Nc2ncnc3ccccc23)c1.Cl	-24.9
N#CCOC(=O)c1cc(S(=O)(=O)N2CCCCC2)ccc1N1CCOCC1	-21.4
CC(C)(C)c1ccc(COc2ccsc2C(=O)O)cc1	-6.72
O=C(NCc1ccccn1)C1CCN(S(=O)(=O)c2ccccc2)CC1	15.4
O=C(NNC(=O)c1cccnc1SCc1cccc([N+](=O)[O-])c1)c1ccc(F)cc1	1.86
CCOc1ccc(CCNC(=O)COC(=O)COc2ccc(Br)cc2)cc1OCC	16.3
Cc1ccc(C)c(NC(=S)NC(=O)c2cncc(Br)c2)c1	-10.6
COc1cccc(NC(=O)C2CC(=O)n3cnnc3S2)c1 (stereo not shown)	11.9
N#CC1=C(N)OC2=C(C(=O)CC(c3ccccc3)C2)C1c1ccoc1 (stereo not shown)	-27.3

SMILES	hERG current change (%, negative = inhibition) at 10uM [%]
O=C(CN(c1ccccc1)S(=O)(=O)c1ccccc1)NCCSc1ccccn1	12.8
O=C(NC(=S)Nc1ccc(N2CCOCC2)cc1)c1ccco1	18.9
CC1CCN(S(=O)(=O)c2ccc3c(c2)oc(=O)n3C)CC1	22
CCC(C(=O)N1CCOCC1)n1nc(C)n2c(cc3cc(C)ccc32)c1=O (stereo not shown)	4.7
CC(C(=O)OCC(=O)Nc1ncc(Cl)cc1Cl)N1C(=O)c2ccccc2C1=O (stereo not shown)	-17.5
COc1ccc(/C=N/Nc2ncc(C(F)(F)F)cc2Cl)c(OC)c1OC	-1.15
CC1(C)CC(=O)C=C(CN2C(=O)c3ccccc3C2=O)C1=O	20.9
Cn1cc(CN2CCCC(CO)C2)c(-c2ccc(Oc3ccccc3)cc2)n1 (stereo not shown)	-26.2
Cc1ccc(/C=C/C(=O)OCC(=O)N(CC(C)C)c2c(N)n(Cc3ccccc3)c(=O)[nH]c2=O)o1	8.59
CCN(CC)S(=O)(=O)c1ccc(C(=O)Nc2cccc(C)c2)cc1	6.22
Cc1cc(-n2cccn2)ccc1CN1CCN(CC(C)C)C(CCO)C1 (stereo not shown)	-45.5
CCN(CC)CCCNc1oc(-c2ccc(OC)c(OC)c2)nc1C#N	-34
CN1CCN(Cc2coc3c(Cl)cc(Cl)cc3c2=O)CC1.O=C(O)C(=O)O	3.47
COCc1nnc(NC(=O)C2CC(=O)N(c3ccc(C)c(Cl)c3)C2)s1 (stereo not shown)	-1.43
O=C(CCC1CCCC1)NCCS(=O)(=O)N1CCN(c2ccccc2)CC1	-12.9
COc1ccc(OC)c(CNC(=O)CCNC(=O)Cn2ccc3ccccc3c2=O)c1	-11.5
O=C(CNC(=O)c1cccc(Br)c1)N/N=C/c1cccnc1	-14
O=C(COC(=O)c1cccc(NS(=O)(=O)/C=C/c2ccccc2)c1)Nc1ccccc1OC(F)F	6.3
CC(C)C(=O)NC(NC(=O)C(C)C)c1ccc([N+](=O)[O-])cc1	0.0956
CCn1c(=NC(=O)CSC(C)=O)sc2cc(OC)ccc21	-17.2
CCC(C)NC(=S)N1CCN(C(c2ccccc2)c2ccccc2)CC1 (stereo not shown)	-59.6
CCOC(=O)N1CCN(S(=O)(=O)c2ccc(C(=O)Nc3nnc(C4CC4)o3)cc2)CC1	-30.4
COc1ccccc1OCCCn1c(=O)sc2ccccc21	-13.3
CN1CCN(S(=O)(=O)c2ccc(Br)c3nsnc23)CC1	-6.26
Cc1cc([N+](=O)[O-])ccc1NC(=O)c1sc2ncn(CC(=O)N3CCOCC3)c(=O)c2c1C	-0.176
Cc1ccc(-n2c(SCC(=O)Nc3cc(C)on3)nc3ccccc3c2=O)cc1	9.64
CCc1nnc(NC(=O)CSc2nnc(CNc3cccc(C)c3)n2-c2ccccc2)s1	3.35
